Source: paper PMC9911399, “Two distinct binding modes provide the RNA-binding protein RbFox with extraordinary sequence specificity”
Substitutions are numbered along the chain they refer to; changes in the protein carry UniProt numbers. The list shows a part of the results.

T1: RBFOX1 RRM RbFoxmut (Fox-RRM*) (Homo sapiens, UniProt Q9NWB1 109-208, R118D;E147R;N151S;E152T)
T1 sequence: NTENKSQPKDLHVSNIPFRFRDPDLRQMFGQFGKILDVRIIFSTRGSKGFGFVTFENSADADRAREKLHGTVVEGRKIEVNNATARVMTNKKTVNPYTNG

B1: UGUCCCG (DNA:RNA)
RNA: GGGAGACCGGAAUUCAGAUUGUCCUGUCCCGUUAAAUCCCGUCGUAGCCACCA
DNA 1: CAATCTGAATTCCGGTCTCCC
DNA 2: TGGTGGCTACGACGGGATT
B2: GUUUUCU (DNA:RNA)
RNA: B1 RNA with U25G, G26U, C28U, C29U, G31U
DNA 1: CAATCTGAATTCCGGTCTCCC
DNA 2: TGGTGGCTACGACGGGATT
B3: CCACUAC (DNA:RNA)
RNA: B1 RNA with U25C, G26C, U27A, C29U, C30A, G31C
DNA 1: CAATCTGAATTCCGGTCTCCC
DNA 2: TGGTGGCTACGACGGGATT
B4: UAUGACU (DNA:RNA)
RNA: B1 RNA with G26A, C28G, C29A, G31U
DNA 1: CAATCTGAATTCCGGTCTCCC
DNA 2: TGGTGGCTACGACGGGATT
B5: ACUAUUC (DNA:RNA)
RNA: B1 RNA with U25A, G26C, C28A, C29U, C30U, G31C
DNA 1: CAATCTGAATTCCGGTCTCCC
DNA 2: TGGTGGCTACGACGGGATT
B6: GACCUUC (DNA:RNA)
RNA: B1 RNA with U25G, G26A, U27C, C29U, C30U, G31C
DNA 1: CAATCTGAATTCCGGTCTCCC
DNA 2: TGGTGGCTACGACGGGATT
B7: UAUCGCU (DNA:RNA)
RNA: B1 RNA with G26A, C29G, G31U
DNA 1: CAATCTGAATTCCGGTCTCCC
DNA 2: TGGTGGCTACGACGGGATT
B8: ACUCACA (DNA:RNA)
RNA: B1 RNA with U25A, G26C, C29A, G31A
DNA 1: CAATCTGAATTCCGGTCTCCC
DNA 2: TGGTGGCTACGACGGGATT
B9: GUGGUUA (DNA:RNA)
RNA: GGGAGACCGGAAUUCAGAUUGUCCGUGGUUAUUAAAUCCCGUCGUAGCCACCA
DNA 1: CAATCTGAATTCCGGTCTCCC
DNA 2: TGGTGGCTACGACGGGATT
B10: AAUGUAU (DNA:RNA)
RNA: B9 RNA with G25A, U26A, G27U, U30A, A31U
DNA 1: CAATCTGAATTCCGGTCTCCC
DNA 2: TGGTGGCTACGACGGGATT
B11: AUCUACU (DNA:RNA)
RNA: B9 RNA with G25A, G27C, G28U, U29A, U30C, A31U
DNA 1: CAATCTGAATTCCGGTCTCCC
DNA 2: TGGTGGCTACGACGGGATT
B12: CAGUUGU (DNA:RNA)
RNA: B9 RNA with G25C, U26A, G28U, U30G, A31U
DNA 1: CAATCTGAATTCCGGTCTCCC
DNA 2: TGGTGGCTACGACGGGATT
B13: CCGUUGU (DNA:RNA)
RNA: B9 RNA with G25C, U26C, G28U, U30G, A31U
DNA 1: CAATCTGAATTCCGGTCTCCC
DNA 2: TGGTGGCTACGACGGGATT
B14: AUGCCUU (DNA:RNA)
RNA: B9 RNA with G25A, G28C, U29C, A31U
DNA 1: CAATCTGAATTCCGGTCTCCC
DNA 2: TGGTGGCTACGACGGGATT
B15: GUAUAUC (DNA:RNA)
RNA: B9 RNA with G27A, G28U, U29A, A31C
DNA 1: CAATCTGAATTCCGGTCTCCC
DNA 2: TGGTGGCTACGACGGGATT
B16: UUUCUCA (DNA:RNA)
RNA: B1 RNA with G26U, C29U, G31A
DNA 1: CAATCTGAATTCCGGTCTCCC
DNA 2: TGGTGGCTACGACGGGATT
B17: CUAUGAU (DNA:RNA)
RNA: B9 RNA with G25C, G27A, G28U, U29G, U30A, A31U
DNA 1: CAATCTGAATTCCGGTCTCCC
DNA 2: TGGTGGCTACGACGGGATT
B18: UUAUUAA (DNA:RNA)
RNA: B9 RNA with G25U, G27A, G28U, U30A
DNA 1: CAATCTGAATTCCGGTCTCCC
DNA 2: TGGTGGCTACGACGGGATT
B19: CAGCGGU (DNA:RNA)
RNA: B9 RNA with G25C, U26A, G28C, U29G, U30G, A31U
DNA 1: CAATCTGAATTCCGGTCTCCC
DNA 2: TGGTGGCTACGACGGGATT
B20: GCCAAAC (DNA:RNA)
RNA: B9 RNA with U26C, G27C, G28A, U29A, U30A, A31C
DNA 1: CAATCTGAATTCCGGTCTCCC
DNA 2: TGGTGGCTACGACGGGATT

What follows are binders tested against T1, RBFOX1 RRM RbFoxmut (Fox-RRM*) (assay: EMSA; HiTS-Eq, 1 nM pool, 10 min; buffer printed only for the single-RNA assays: 10 mM Tris pH 7.5, 150 mM NaCl, 3.4 mM EDTA, 0.001% NP-40, 30 C). Conditions: tags: His6 N-terminal (pET28a); label: 5' 32P.
Outline: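 Purified RbFox RRM (wild type or mutant) was equilibrated for 10 min in 50 µL with 1 nM of a 5′-radiolabelled pool of RNA with 7 randomized nucleotides, its flanks annealed to DNA oligonucleotides, across increasing protein concentrations. Free RNA was separated by 8% native PAGE, excised, reverse-transcribed, PCR-barcoded and sequenced on an Illumina HiSeq 2500. Relative association constants came from read-count changes of each variant against the control reaction, normalised to the cognate motif.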

Row | Binder | binding signal
1 | B1 | 0.096 KA relative to UGCAUGU
2 | B2 | 0.0724 KA relative to UGCAUGU
3 | B3 | 0.0888 KA relative to UGCAUGU
4 | B4 | 0.0521 KA relative to UGCAUGU
5 | B5 | 0.0835 KA relative to UGCAUGU
6 | B6 | 0.0642 KA relative to UGCAUGU
7 | B7 | 0.066 KA relative to UGCAUGU
8 | B8 | 0.109 KA relative to UGCAUGU
9 | B9 | 0.148 KA relative to UGCAUGU
10 | B10 | 0.137 KA relative to UGCAUGU
11 | B11 | 0.114 KA relative to UGCAUGU
12 | B12 | 0.151 KA relative to UGCAUGU
13 | B13 | 0.132 KA relative to UGCAUGU
14 | B14 | 0.112 KA relative to UGCAUGU
15 | B15 | 0.114 KA relative to UGCAUGU
16 | B16 | 0.097 KA relative to UGCAUGU
17 | B17 | 0.0688 KA relative to UGCAUGU
18 | B18 | 0.0751 KA relative to UGCAUGU
19 | B19 | 0.125 KA relative to UGCAUGU
20 | B20 | 0.0488 KA relative to UGCAUGU
